Source: paper PMC5853960
Results are given in words; binding and its absence hold for the method and conditions named. Binding seen in cells or lysates may run through a third protein. Some binding calls cover weakened binding; strength is not graded here. For some assays here: Where a sequence is shown, tags or fusion partners need not be part of it. Values belong to the binder of their own block, whether it stands above or below them.

Experiments:
[1] = target: T1, RAR1, LCI positive control construct (UniProt Q9SE33); experiment: split reporter; firefly luciferase complementation imaging (LCI): nLUC and cLUC fusions co-expressed by agroinfiltration (with p19) in N. benthamiana leaves for 2 d; 1 mM luciferin sprayed, LUC images taken
T1 sequence: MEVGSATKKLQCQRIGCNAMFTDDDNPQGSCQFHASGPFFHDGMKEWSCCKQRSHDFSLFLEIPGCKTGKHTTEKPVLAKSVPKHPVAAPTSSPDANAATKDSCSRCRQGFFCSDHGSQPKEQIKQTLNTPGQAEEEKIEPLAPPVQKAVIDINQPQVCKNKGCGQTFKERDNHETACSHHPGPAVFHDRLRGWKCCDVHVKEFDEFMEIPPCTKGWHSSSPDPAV

[2] = target: T2, QQT1–nLUC (Arabidopsis thaliana) (UniProt Q56XY2); experiment: as above
T2 sequence: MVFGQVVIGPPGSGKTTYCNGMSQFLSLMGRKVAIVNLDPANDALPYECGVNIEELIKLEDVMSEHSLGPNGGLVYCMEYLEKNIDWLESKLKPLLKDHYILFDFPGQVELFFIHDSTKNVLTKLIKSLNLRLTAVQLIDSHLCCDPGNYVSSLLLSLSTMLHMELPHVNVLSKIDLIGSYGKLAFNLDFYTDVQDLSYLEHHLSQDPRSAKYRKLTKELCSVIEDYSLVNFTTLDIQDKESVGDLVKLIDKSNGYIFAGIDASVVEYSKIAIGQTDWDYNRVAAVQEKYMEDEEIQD

B1: SGT1b, LCI positive control construct (protein, UniProt Q9SUT5 1-358)
chain: MAKELAEKAKEAFLDDDFDVAVDLYSKAIDLDPNCAAFFADRAQANIKIDNFTEAVVDANKAIELEPTLAKAYLRKGTACMKLEEYSTAKAALEKGASVAPNEPKFKKMIDECDLRIAEEEKDLVQPMPPSLPSSSTTPLATEADAPPVPIPAAPAKPMFRHEFYQKPEEAVVTIFAKKVPKENVTVEFGEQILSVVIDVAGEEAYHLQPRLFGKIIPEKCRFEVLSTKVEIRLAKAEIITWASLEYGKGQSVLPKPNVSSALSQRPVYPSSKPAKDWDKLEAEVKKQEKDEKLDGDAAMNKFFSDIYSSADEDMRRAMNKSFAESNGTVLSTNWKEVGTKKVESTPPDGMELKKWEY
binding [1]: binds

B2: microtubule-associated protein 65-7 (MAP65-7)–cLUC (protein, UniProt Q8L836 1-603)
chain: MLEIESPTSLCFRTNTTCNALLRELQKIWVDIGESDAEKDRMLMELEKECLEIYRRKVDEAANSKAQLHQSLVSIEAEIASLLAALGVFNSHSPMKAKEGSKSLKEKLAAVRPMLEDLRLQKDERMKQFVDIKAQIEKMSGEISGYSDQLNKTMVGSLALDEQDLTLRKLNEYQTHLRSLQKEKSDRLNKVLDYVNEVHTLCGVLGVDFGQTVSEVHPSLHRTDHEQSTNISDDTLDGLHHMIHKLKTERSVRFQKLKDVAGSLFELWNLMDTSQEERTKFASVSYVVRSSESDITEPNILSSETIEQVSAEVDCFNKLKASRMKELVMKRRTELENLCRLAHIEADTSTSLEKSTALIDSGLVDPSELLTNIELHINKIKEEAHSRKEIIDRIDRWLSACEEENWLEEYNQDETRYSAGRGGHVNLKHAERARITVNKIPSMVDNLIKKTLLWEDETRKSFLYDGVRLVSILEDYKLTRKQQEEEKRRYRDQKKMQDLLIKRRESIYGSKPSPRRSNSVRKTNGYNGDASVPPTPRRNSAGATNNDIMTTPRSYSSHRQNGYFKEVRRLSTAPLNFVAIPKEDSVSTYTSVCGSEPDSPLYN
binding [2]: binds

Continued, values first:

binding [2]: no binding
B3: QQT1–nLUC (protein, UniProt Q56XY2 1-298)
chain: T2 sequence

binding [2]: no binding
B4: GRP7 protein, LCI construct (protein, UniProt Q03250 1-176)
chain: MASGDVEYRCFVGGLAWATDDRALETAFAQYGDVIDSKIINDRETGRSRGFGFVTFKDEKAMKDAIEGMNGQDLDGRSITVNEAQSRGSGGGGGHRGGGGGGYRSGGGGGYSGGGGSYGGGGGRREGGGGYSGGGGGYSSRGGGGGSYGGGRREGGGGYGGGEGGGYGGSGGGGGW

binding [2]: binds
B5: translocon at the outer envelope membrane of chloroplasts 33 (TOC33)–cLUC (protein, UniProt O23680 1-297)
chain: MGSLVREWVGFQQFPAATQEKLIEFFGKLKQKDMNSMTVLVLGKGGVGKSSTVNSLIGEQVVRVSPFQAEGLRPVMVSRTMGGFTINIIDTPGLVEAGYVNHQALELIKGFLVNRTIDVLLYVDRLDVYRVDELDKQVVIAITQTFGKEIWCKTLLVLTHAQFSPPDELSYETFSSKRSDSLLKTIRAGSKMRKQEFEDSAIAVVYAENSGRCSKNDKDEKALPNGEAWIPNLVKAITDVATNQRKAIHVDKKMVDGSYSDDKGKKLIPLIIGAQYLIVKMIQGAIRNDIKTSGKPL
